Over roughly 33,000 sequences, “E-score (-0.5 to 0.5)” has its median near -0.053; the highest 2% begin near 0.37. The list shows a part of the results.
Molecular target: Hap1 (UniProt P0CE41)
Test: PBM E-score (8-mer binding enrichment) (E-score (-0.5 to 0.5)); higher = stronger / more preferred TF binding; most listed sequences are background and not binding sites
Settings: protein concentration: 200 nM; construct: GST-DNA-binding domain
In short: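 For each ungapped eight-base word taken together with its reverse complement, the Universal PBM Analysis Suite assigned an E-score. Binding data came from GST-tagged yeast transcription factors, applied at about 100-200 nM, on universal all-10-mer Agilent arrays made double-stranded by primer extension. Fluorescent anti-GST marked bound protein, and scans were normalised with masliner.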

Sequence of UniProt P0CE41 (P0CE41 whole entry): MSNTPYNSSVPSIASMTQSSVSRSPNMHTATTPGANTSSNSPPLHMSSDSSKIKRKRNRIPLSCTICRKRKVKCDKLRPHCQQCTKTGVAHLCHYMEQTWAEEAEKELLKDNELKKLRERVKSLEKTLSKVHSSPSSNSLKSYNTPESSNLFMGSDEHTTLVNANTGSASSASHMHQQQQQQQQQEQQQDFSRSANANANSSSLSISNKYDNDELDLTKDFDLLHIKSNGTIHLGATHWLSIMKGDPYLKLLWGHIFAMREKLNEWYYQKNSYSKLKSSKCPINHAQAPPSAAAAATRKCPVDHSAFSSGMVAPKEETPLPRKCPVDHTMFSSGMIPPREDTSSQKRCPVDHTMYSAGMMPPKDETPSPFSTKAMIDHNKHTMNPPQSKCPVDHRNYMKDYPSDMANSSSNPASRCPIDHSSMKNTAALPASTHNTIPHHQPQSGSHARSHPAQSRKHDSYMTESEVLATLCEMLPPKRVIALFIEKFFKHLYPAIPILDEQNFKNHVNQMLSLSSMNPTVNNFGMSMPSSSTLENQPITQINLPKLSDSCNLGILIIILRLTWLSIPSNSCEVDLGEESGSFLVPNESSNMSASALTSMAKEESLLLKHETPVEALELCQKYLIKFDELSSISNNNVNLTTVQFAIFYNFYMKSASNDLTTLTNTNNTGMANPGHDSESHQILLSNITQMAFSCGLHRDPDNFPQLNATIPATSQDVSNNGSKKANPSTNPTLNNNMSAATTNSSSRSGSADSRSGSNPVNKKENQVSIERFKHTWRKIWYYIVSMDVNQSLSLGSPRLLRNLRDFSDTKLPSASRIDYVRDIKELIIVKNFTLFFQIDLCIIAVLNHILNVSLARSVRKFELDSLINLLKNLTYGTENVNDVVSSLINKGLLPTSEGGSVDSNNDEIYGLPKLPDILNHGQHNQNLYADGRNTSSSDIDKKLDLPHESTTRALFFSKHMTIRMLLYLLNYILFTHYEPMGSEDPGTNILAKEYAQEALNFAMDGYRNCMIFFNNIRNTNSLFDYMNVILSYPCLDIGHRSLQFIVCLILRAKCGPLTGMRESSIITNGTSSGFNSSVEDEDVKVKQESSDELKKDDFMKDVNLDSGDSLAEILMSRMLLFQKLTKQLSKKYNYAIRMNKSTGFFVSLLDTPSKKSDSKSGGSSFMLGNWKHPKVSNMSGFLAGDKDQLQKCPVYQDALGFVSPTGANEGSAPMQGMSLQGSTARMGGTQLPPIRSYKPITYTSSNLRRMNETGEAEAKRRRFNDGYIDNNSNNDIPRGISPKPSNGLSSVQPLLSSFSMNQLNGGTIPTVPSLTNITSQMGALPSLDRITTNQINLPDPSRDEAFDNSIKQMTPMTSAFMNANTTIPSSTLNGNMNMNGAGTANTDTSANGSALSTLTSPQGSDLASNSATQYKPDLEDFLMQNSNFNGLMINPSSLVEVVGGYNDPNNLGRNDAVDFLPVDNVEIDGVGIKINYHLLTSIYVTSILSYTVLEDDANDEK

Question: How did the “PBM E-score” value turn out when AGGGCAGC was run?
Answer: The value was -0.243.

Question: With ATGCACAA as the sequence, how does the “PBM E-score” value read?
Answer: Its value is -0.22.

Question: For AAACATGG, which “PBM E-score” value is on record?
Answer: Its value is -0.139.

Question: How did the “PBM E-score” value turn out when ACCAGCGC was run?
Answer: Its value is -0.167.

Question: How did the “PBM E-score” value turn out when GCTTGATA was run?
Answer: The value was -0.258.

Question: How did the “PBM E-score” value turn out when GCATACAA was run?
Answer: Its value is -0.0244.

Question: How did the “PBM E-score” value turn out when AACGGGAA was run?
Answer: The value was 0.195.

Question: How did the “PBM E-score” value turn out when ACCACGTG was run?
Answer: The value was -0.195.

Question: With ACGTGTAG as the sequence, how does the “PBM E-score” value read?
Answer: The value was -0.16.

Question: How did the “PBM E-score” value turn out when GCATCCCC was run?
Answer: The value was 0.163.

Question: How did the “PBM E-score” value turn out when GGACTCTA was run?
Answer: The value was -0.031.

Question: ACGGCGAG was tested. Which “PBM E-score” value did it give?
Answer: The value was -0.0171.

Question: Which “PBM E-score” value does the source give for ATATCGGG here?
Answer: The value was 0.436.

Question: How did the “PBM E-score” value turn out when AATGAAGT was run?
Answer: Its value is -0.16.

Question: With TCAAATGA as the sequence, how does the “PBM E-score” value read?
Answer: Its value is 0.0153.

Question: With CATAATCG as the sequence, how does the “PBM E-score” value read?
Answer: The value was 0.217.

Question: How did the “PBM E-score” value turn out when ATTAAGTC was run?
Answer: Its value is -0.113.

Question: How did the “PBM E-score” value turn out when CTACCGCA was run?
Answer: The value was 0.108.

Question: How did the “PBM E-score” value turn out when AAGAGGTG was run?
Answer: Its value is -0.147.

Question: ACTCTAAA was tested. Which “PBM E-score” value did it give?
Answer: Its value is -0.0227.

Question: With CTGAAGTC as the sequence, how does the “PBM E-score” value read?
Answer: Its value is -0.0811.

Question: For GCTTGCCA, which “PBM E-score” value is on record?
Answer: The value was -0.167.

Question: How did the “PBM E-score” value turn out when AGCGCGCT was run?
Answer: The value was 0.0619.

Question: How did the “PBM E-score” value turn out when TCGGCGAA was run?
Answer: Its value is 0.34.

Question: With AGGTATTA as the sequence, how does the “PBM E-score” value read?
Answer: The value was 0.0089.

Question: For ACTACTAG, which “PBM E-score” value is on record?
Answer: The value was 0.0349.

Question: Which “PBM E-score” value does the source give for AGAAGTCC here?
Answer: The value was 0.0588.

Question: CAATACGC was tested. Which “PBM E-score” value did it give?
Answer: Its value is 0.034.

Question: CTGAACGC was tested. Which “PBM E-score” value did it give?
Answer: Its value is -0.0902.

Question: How did the “PBM E-score” value turn out when CCGGCCGG was run?
Answer: Its value is 0.456.

Question: AGGTGAGG was tested. Which “PBM E-score” value did it give?
Answer: The value was -0.178.

Question: How did the “PBM E-score” value turn out when CCCGGCAA was run?
Answer: Its value is 0.401.

Question: Which “PBM E-score” value does the source give for GCCCTGCC here?
Answer: The value was -0.1.

Question: With GCATCACC as the sequence, how does the “PBM E-score” value read?
Answer: Its value is -0.0719.

Question: How did the “PBM E-score” value turn out when TTCCTAAA was run?
Answer: The value was -0.144.

Question: For GGTGACAA, which “PBM E-score” value is on record?
Answer: The value was 0.0944.

Question: With CAGGGTCG as the sequence, how does the “PBM E-score” value read?
Answer: The value was 0.16.

Question: With CTCTTTTA as the sequence, how does the “PBM E-score” value read?
Answer: Its value is -0.336.

Question: AAAGATCC was tested. Which “PBM E-score” value did it give?
Answer: The value was 0.0926.

Question: Which “PBM E-score” value does the source give for AGGTTCCG here?
Answer: The value was 0.277.

Question: TGCACAAA was tested. Which “PBM E-score” value did it give?
Answer: Its value is -0.295.

Question: How did the “PBM E-score” value turn out when AGCCATAC was run?
Answer: The value was -0.274.

Question: CCCGGATC was tested. Which “PBM E-score” value did it give?
Answer: The value was 0.345.

Question: With CACTGCAC as the sequence, how does the “PBM E-score” value read?
Answer: Its value is -0.077.

Question: With AGTTCTTG as the sequence, how does the “PBM E-score” value read?
Answer: Its value is -0.141.

Question: With ATGGTAAA as the sequence, how does the “PBM E-score” value read?
Answer: Its value is -0.0612.

Question: With CGGAATAA as the sequence, how does the “PBM E-score” value read?
Answer: The value was 0.32.

Question: With AAGATCGT as the sequence, how does the “PBM E-score” value read?
Answer: The value was -0.0868.

Question: How did the “PBM E-score” value turn out when CTTTTTAC was run?
Answer: Its value is -0.0669.

Question: For CACACAGG, which “PBM E-score” value is on record?
Answer: Its value is -0.286.

Question: For ATGGCAAC, which “PBM E-score” value is on record?
Answer: Its value is -0.023.

Question: GAATGGTA was tested. Which “PBM E-score” value did it give?
Answer: Its value is -0.139.

Question: Which “PBM E-score” value does the source give for GTGTGTGA here?
Answer: The value was -0.201.

Question: How did the “PBM E-score” value turn out when AAATCGTA was run?
Answer: Its value is -0.0467.

Question: Which “PBM E-score” value does the source give for GTTCTTCA here?
Answer: Its value is -0.177.

Question: Which “PBM E-score” value does the source give for ACCAGTTA here?
Answer: Its value is -0.225.

Question: Which “PBM E-score” value does the source give for CGCTGTCA here?
Answer: Its value is -0.13.

Question: For AATCCTCG, which “PBM E-score” value is on record?
Answer: The value was 0.0735.

Question: For AGTGTCTC, which “PBM E-score” value is on record?
Answer: Its value is -0.0517.

Question: CCGTTTAA was tested. Which “PBM E-score” value did it give?
Answer: The value was 0.239.

Question: For GATGTTGC, which “PBM E-score” value is on record?
Answer: The value was 0.0499.

Question: For ACAGACTC, which “PBM E-score” value is on record?
Answer: The value was -0.259.

Question: With GCTGCCAA as the sequence, how does the “PBM E-score” value read?
Answer: Its value is -0.148.

Question: Which “PBM E-score” value does the source give for ATATGGCA here?
Answer: Its value is -0.183.

Question: Which “PBM E-score” value does the source give for CACCCACG here?
Answer: The value was 0.0671.

Question: How did the “PBM E-score” value turn out when CTAGCACA was run?
Answer: The value was -0.188.

Question: For ACGTGCAT, which “PBM E-score” value is on record?
Answer: The value was -0.299.

Question: How did the “PBM E-score” value turn out when TTCGACAA was run?
Answer: Its value is -0.265.

Question: With ACTTCCCC as the sequence, how does the “PBM E-score” value read?
Answer: Its value is -0.127.

Question: How did the “PBM E-score” value turn out when CCCCAACG was run?
Answer: The value was -0.0534.

Question: With CGAGTAAC as the sequence, how does the “PBM E-score” value read?
Answer: Its value is 0.07.

Question: Which “PBM E-score” value does the source give for GGACCCTA here?
Answer: Its value is -0.0296.

Question: GCTGCGGA was tested. Which “PBM E-score” value did it give?
Answer: The value was 0.273.

Question: Which “PBM E-score” value does the source give for GTGTATCA here?
Answer: The value was -0.0421.

Question: For CAGCACAC, which “PBM E-score” value is on record?
Answer: Its value is -0.233.

Question: ACAACAAG was tested. Which “PBM E-score” value did it give?
Answer: Its value is -0.149.

Question: AAGTTAGG was tested. Which “PBM E-score” value did it give?
Answer: Its value is -0.0844.

Question: How did the “PBM E-score” value turn out when AGTGTCAG was run?
Answer: The value was -0.352.

Question: For ACTCCATC, which “PBM E-score” value is on record?
Answer: Its value is 0.234.

Question: With ACTCGTCA as the sequence, how does the “PBM E-score” value read?
Answer: The value was -0.226.

Question: Which “PBM E-score” value does the source give for CTTAGGGA here?
Answer: The value was -0.308.

Question: Which “PBM E-score” value does the source give for CGGTCTAG here?
Answer: The value was 0.135.

Question: For GGAGGGCA, which “PBM E-score” value is on record?
Answer: The value was -0.07.

Question: With AAAATACG as the sequence, how does the “PBM E-score” value read?
Answer: Its value is -0.0193.

Question: For CAATTTCA, which “PBM E-score” value is on record?
Answer: Its value is -0.266.

Question: How did the “PBM E-score” value turn out when ATGGATGC was run?
Answer: Its value is -0.177.

Question: Which “PBM E-score” value does the source give for CAGTACTG here?
Answer: Its value is -0.213.

Question: With ATTAACCG as the sequence, how does the “PBM E-score” value read?
Answer: Its value is 0.307.

Question: With GACTCTAC as the sequence, how does the “PBM E-score” value read?
Answer: Its value is -0.172.

Question: For TACTGGAA, which “PBM E-score” value is on record?
Answer: The value was -0.0919.

Question: For AAGGGGGG, which “PBM E-score” value is on record?
Answer: The value was -0.228.

Question: With ACTAGGGC as the sequence, how does the “PBM E-score” value read?
Answer: The value was -0.197.

Question: How did the “PBM E-score” value turn out when CGCCGCCG was run?
Answer: Its value is 0.276.

Question: How did the “PBM E-score” value turn out when ATCCAAAG was run?
Answer: Its value is -0.142.

Question: Which “PBM E-score” value does the source give for GTCCTAAC here?
Answer: Its value is -0.053.

Question: CACAGCGC was tested. Which “PBM E-score” value did it give?
Answer: Its value is 0.0269.

Question: CAATCGTA was tested. Which “PBM E-score” value did it give?
Answer: The value was -0.0582.

Question: With CGCCGTGA as the sequence, how does the “PBM E-score” value read?
Answer: The value was 0.0995.

Question: CACGGGGC was tested. Which “PBM E-score” value did it give?
Answer: The value was 0.16.

Question: With AGAGGTCA as the sequence, how does the “PBM E-score” value read?
Answer: Its value is -0.04.

Question: With ATATAATA as the sequence, how does the “PBM E-score” value read?
Answer: The value was 0.0467.

Question: For GGGTAACA, which “PBM E-score” value is on record?
Answer: The value was -0.0917.

Question: How did the “PBM E-score” value turn out when CACGCGTC was run?
Answer: The value was 0.177.

Question: How did the “PBM E-score” value turn out when CGCCATGC was run?
Answer: The value was -0.0187.

Question: For ATCACTTC, which “PBM E-score” value is on record?
Answer: Its value is -0.0867.

Question: With AGACCCTC as the sequence, how does the “PBM E-score” value read?
Answer: The value was -0.0464.

Question: How did the “PBM E-score” value turn out when CCCTTAAC was run?
Answer: Its value is 0.0199.

Question: How did the “PBM E-score” value turn out when CGTGGAAG was run?
Answer: The value was 0.0468.

Question: With CGCCTTAA as the sequence, how does the “PBM E-score” value read?
Answer: The value was -0.0792.

— the supplement of paper PMC3334620
